112 variants from the RNAGym collection of RNA variant scans (doi:10.7554/elife.90254) can be followed below.

The source gives no read counts; variants with many changes may rest on few reads.

To fix the notation:
B1: LINE1-mini (parent)
chain: GGCAGAGCUCAACACAGCGUGGCAAAGUGGCUGUGGCUAGACUGCC

The variants in this data set derive from B1. The experiment in a line: self-cleavage, relative activity (ratio to wild type); higher = more cleavage; in vitro, sequencing; the parent is a self-cleaving ribozyme.
Regarding GCAAGAGCUCAACACAGCGUGACAAAGUGGCUGUGGUUAGACUGCC, the self-cleavage turned out to be 0.02.
For GGCAGACCUCAACACAGCGUGUCAACGUGGCUGAGGCUAGACUGCC the value was 0.02; for GGCAGAGCUCAACACAGCGCGGCUAAGUGGCUGUGGGUAGACUGCC, 0.01; for GGCAGAGUUCAACACAGCGUGGCAAUGUGGCUGGGGCUAGACUGCC, 0.02.
Under GGCAAAGCUCAACACAGCGUGGCAAAGCGGCUGAGGCUAGACUGCC stands 0.05.
For GGCAUAGCACAACGCAGCGGGGCAAACUGGCUGUGGCUAGACUGCC the value was 0.22; for GGCAGAGCUCAACACAGCGUGGCAAAGUGGCUGUGGCUUGAGCGCC, 0.01.
For the variant GGCAGAGCUCAACACAGCGUGGCAAAGUGGCUGUGGCUAUACGGGC, the self-cleavage came to 0.02.
Under GGCAGAGCUCAACUCAGCGUGGCAAAGUUGCUGUGGCUAGAUUGCC stands 0.01; under GACAGAGCUAAACACACCGUGGCAAAGUGCAUGUGGCUAGACAGCC, 0.02.
On to GGCAGAGCUCAAUACAGCGUGCUAAAGUGGCUGUCGCUAGACUGUC, for which the self-cleavage turned out to be 0.
Under GCCAGAGCUCAACAAAGCGUGGCAAAGUGGCUGAGGCUAGACUGCC stands 0.04; under GGCAGAGCUCAACACAGCGUGGCAAAGUGGCGGUAGCUAAACUGCC, 0.02; under GGCAGAUAUCAACACAGAGUGGCAAAGUGGCUGUGGCUAGACUGCC, 0.34.
For GGCAGAGCUCAACACAGCGUGGCACAGUGUCUGCGCCUAGACUGGC the value was 0.02; for GGCCGAGCUCAACACAGCGUAGCAAAGGGGCUGUGGGUAGACUGCC, 0.09.
Under GGCAGAGCUCACCACAGAGUGGCAUAUUGGCGGUGGCUAGACUGCC stands 0.03.
CGCAGAGCUCAACAUAGCGUGGCAAAGUGGCUGUGGCUACACUGCC: the self-cleavage turned out to be 0.02.
For GGAAGAGCGCAACACAGCGUGGCAAAGUUGCUGUGGCUAGACUGCA the value was 1.03; for CGUUGAGCUCAACACAGCGUGGCAAAGUGGCCGUCGCUAGACUGCC, 0.04; for GGCUGAUCUCAACACAGCGUCGCAAAAUGGCUGUGACUAGGCUGCC, 0.03.
Under GGCAGAGCUCAACAAAGAGAGGCAAAGUGGCUGUGGGGAGAAUGCC stands 0.01; under GGCGGAGCUCAACACAGCGUGGCCAACUGGCUCUGGCUAGACUGCA, 0.09; under GGCAGAGCGCAACACAGCGUAGCAAAGUAGCUGUGGCUAGACUGCC, 0.03.
Consider GGCAGAGAUCAACACGACAUGGCAAAGUGGCUGUGGCUAGACUGCC, for which the self-cleavage is 0.1.
In the case of GGCAGUGCUCAACACAGCGUGGCAAAAAGGCUGCGACUAGACUGCC, the self-cleavage turned out to be 0.03.
Regarding GGUAGAGCUCAACACAGCGUGGCACAGUUGCUGUGGCUAGACUGCC, the self-cleavage came to 0.16.
For AGCAGAGCUCCACACAGCGUGGCAAAGUGGCUGUGGCUAGACUGCU the value was 0.35; for GACAGAGCUCGACACAGCGUGGCAAAGUGGCUGUGGUUAGACCGCC, 0.04; for GGGAGAGCUCAACACAGCUUGGCAAAGUGCCUGUGGCUAGACUGCA, 0.05.
For GGCAGAGCUCAACACAGCGUGGCAAAGUUGCUGUGACUAUACUGCC the value was 0.19; for GGCAGAGCUCAACAAAGCGUGGCAAACUGGCUAUGGCUAUACUGCC, 0.09.
Under GGCAGAGCGCAAUACGGCGAGGCAAGGUGGCUGUGGAUAGACUGCC stands 0.17.
On to GUCAGAGCUCGACACAGCGUGUCAAAGUGGCUGUGGCUCGUAUGCC, for which the self-cleavage stood at 0.
Under GGCAGAGCUCAACACUGCGUGGCACAGUGGCUGUGGCUAGACUGCU stands 0.03.
Under GGCAGAGCUCAAAACAGCGUGGCAAAGUGGCUGUGGCUAGACUCCA stands 0.51.
Under GGCAGAGCUCAACAGAGCGUGGCAGAGUGGCGGUGGCUAGACUGCC stands 0.01.
For GGCAGAGCCCAACUCAGCGUGGCAAAGUGGCUGUGGCUAGACUGGU, the self-cleavage turned out to be 0.01.
For GGCAGAGCCCAACACAACGUGGCAAUGUGGCUGUGGCUAGACUGCC the value was 0.02.
For GGCGGAGCUCAACACAGCGUGGUAAAGUGGCUGUGGCUCGACUGCC the value was 0; for GGCAGAGCUUAACACAGCGUGGCAAAGUGGUUGUGGCUAGACUGAC, 0.05; for UGCAGAGCUCAACACAGCGUGUCAAAAUGGUUGUACCUAGACUGAC, 0.02.
Under CGCAGAGCUCAACACCGCGUGGCAAAGUGGCUGUGACUAGACUGCC stands 0.01; under GGCAGAGGUCAACACAGCGGGGCAAAGUGGCUGUGGUUAGACUGCC, 0.02; under GGCAGAGCUCUUCUCGGCGUAGCAAAGUGGCUGUGGCGAGAUUGCC, 0.
For GGCAGAGCUCAACACAGCGUGGCAAAGUGGUUGUGCCUAGACUGCG, the self-cleavage stood at 0.07.
For GGCAGAGCUCAACACAACAUGGCCAAGUGGCUGUGCCUAGACUGCC the value was 0.01; for UGCAGAGCUCAAGACAUCGUGUCUAAGUGGCUGUGGCUACACUGCC, 0.24.
Under GGCAGAGCUCGACAUAGCGCGGCAAAGUGGCUUUGGCUAGACUGCC stands 0.01.
Consider GGCAGAGCUCAACACAGCGUUCAAAAGUGGCUGUGGCUAGACUGCC, for which the self-cleavage is 0.28.
For GGCAGAGCUCAACACAGGGUGGCAAAUAGGCUGUGGCUAGACUGCC the value was 0.07; for GGCAUACCUCAACACAGCGUGGCAAUGUGGCUGUGGCUAGACUGCC, 0.12.
For GGCAGAGCUUAACACAGCGUGGCAAAAUGGCUUUGGCUAGGCUGCC the value was 0.02; for GGUAGAGCUCAACACAGCGUUGCAAAGUGGUUGUGGCUAGACUGCC, 0.26.
Under GGCAGAGAUCAACACAGCCUGCCAAAGUGGCUGUGGCUAGACUGCC stands 0.22; under GGCAGAGCUCAACAGAGCGUGGCAUAGUGGCUGAGGCUACACUGCC, 0; under GGCAGAGCUAAGCACAGCGUGGCAAAGUGGCUGUGGCUAGAUUGCU, 0.
Regarding GGCAGAGCUCACCACAGCGUGCCUAAGUGGCUGUGGCUAGACUGCC, the self-cleavage worked out at 0.05.
Under GACAGAGUUCAACACAGGGUGGCAAAGUGGCUAUGGUUAGACUGCC stands 0.05.
Under GGCAGAGCUCAACACAACGAGGCAAAAUCGCUGUGGCUAGACUGCC stands 0.39; under GGCAGAGCUCAACACAGCGUGGCAAAGUGGCUGUGGCACCACUGCC, 0.05; under GGCUGAGCUCAACACCGCGUGGCAAAGUGCCUGUGGCUAGACUGCC, 0.05.
Under GGUCGAGCUCAACACAGCGUGGCAAUGUGGCUUUGGCUAGACUGCG stands 0.05.
With GGCAGAGCUCAACACUGCGUGGCAAAGCGGCUAUGGCUAGACUGCC, the self-cleavage was found to be 0.07.
Take GGCAAAGCUUAACACAGCGUGGCAAAGUGGGUGUGGCUAGACUGCC: the self-cleavage came out at 0.05.
For GGCAGAGGUCGCCACAGCGUGGCAAAAUGGCUGUGGCUAGACUGCC the value was 0.02; for GGCAGAGCUGGACCCAGCGUGGCAAAGUGGCUGUGGCUAGACUGCC, 0; for GGCAGAGCUCAAUACAGCGCGGCAAAGUGGCUGUGGGUAAACUGCC, 0.01.
For the variant GGCAGAGCUCAACACUGCGUGGCAAAGUGGCUGUGGCUAGACUUCA, the self-cleavage is 0.02.
Under GGCAGAGCGCAACACAGCGUGGCCAAGUGGCAGUGGCUAGACUGCC stands 0.02; under GGCAGAGCUCAAUCCAGCGUGGCAAAGUGGCUGUGGCUAAACUGCC, 0.17; under GGCAGAGCUCUACACAGCGAGGCAAAUUGGCUGUGGCUAGACUGCC, 0.06.
For GGCAGAGGUCGACACAGCGUGGCACAGUGGCUGUGGCUGGACUGCC the value was 0.01; for GACAAAGCUCAACACAGCGUGGCAAAGUGGCUGUGGCUACACUGCC, 0.25; for GCCAGAGCACAAUACAGCGUGGCAAAGUAGCUGUGGCUAGACUGCC, 0.02.
In the case of GGCAGAGCUUAACACAGCGUGGCAAGGUGGCUUUGGCAAGACUGCC, the self-cleavage came out at 0.02.
Consider CGCAGAGCUCAACACAGCGUGCCAACGUGUCUGUGGCUAGACUCCC, for which the self-cleavage came out at 0.12.
Under GGCAGAGCUCAACACUGCGUGGCAAAGUGUCUGUGCCUAGACUACC stands 0.03; under GGCAGAGCUCAACACAGCGUGGCAAAGUGGCUGUGGCUAGGCCCCC, 0.01; under GGCAGAGCUCAACACACCGUAGCAAAGUGGUUGUGGCUAUACGGCC, 0.02.
Under GGCAGAGCUCAACACAGUGUGGCAAAGUGGCUGUGGCUAAUCUGCC stands 0.2.
For the variant GGCAGAGCUCAACACUGCGUGGGGAACUCGCUGUGGCUAGACUGCC, the self-cleavage was found to be 0.88.
For GGCAGACCUCAAGACAGCGUGGCAAAGUGGCUGUGGAUUGACUGCC the value was 0.15; for GGCAUAGCUCAACACAGCGUGGGAAAGUGUCUUUGGGUAGACUGCC, 0.01.
Under GGAGGAGCUCAACUCAGCGUGGCAAAGUGGCUGUGGCUAGACUGCC stands 0.17; under GGCAGAGGUCAAUACAGCGUGGCAAAGUGGAUGUGGCUAGACUGCC, 0.04.
For GGCAGAGCUCUACACAGCGUGGCAAAGUGGCCGUGGCUACACUGCC the value was 0.02; for GGCAGAGCUCAACACAGCGUGGCACAGUCGCUGUGGCAAGACUGCC, 0.13.
Turning to GGCAGAGCUCAACACAGCGUGGCACAGAGGCUGUGGCUACACUGCG, the self-cleavage came out at 0.
For GGCAUUGCUCAACACAGCCAGGCAAUGUGGCUGUGGCUAGACUGCC, the self-cleavage is 0.11.
Under GCCAGUGCUCAACACAGCGUCGCAAAGUGGCUGUGGCUAGACUGCC stands 0.08; under GGCAGAGCUCAACACAGCGUGUCAAAGUGGCUGUGGCAAUACUGCC, 0.09.
For GGCAGAGCUGAACACAGGGUGGCAAAGUAGCUGUGGAUAGAAUGCC the value was 0.
GGCAGAGCUUAACACAGCGAGGCAAAGUGGCUGUGGCUUCACUGCC: the self-cleavage stood at 0.01.
Under GGCAGAGCGCAACACAGCGUUGCAAACUGGCUGUGGCUAGACUGCC stands 0.06; under GGCAUAGCUCAACACAGCGUGGCAAAGUCGCUGUGGCUAGUCUGCC, 0.03.
Under GGCAGAUCUAAACACAGCGUGGCGAAGUGGCUGUGGCUGGACUGCC stands 0.01.
Under GGCAGAGCGCAGCACAGCGUGGCAAAUUAGCUGUGGCUCGACUGCC stands 0; under GGCAGAGCUGAACACAGCGUGGCUAAGUGGCUGUGGCUGGACUGCC, 0.03.
For the variant GGUAGAGCUCACCACAGCGUGGCUAAGUGGCUGUGGCUAGACUGCC, the self-cleavage was found to be 0.02.
For GGCAGAGGUGAACACAGCGUCGCAAAGUGGCUGUGGCUAGACUGCC the value was 0.01; for GGCUGAGCUCACCACAGCCUGGCAAAGUCGCUGUGGCUAGACUGCC, 0.01.
For GGCAGAACUCAACAAAGCGUGGCAAAUUGGCUAUGGCUAGACUGCC the value was 0.01; for GGCGGAGCCCAACACAGCGUGGCAAAGUGGCUGUUGCUAUACUGCC, 0.02; for AGCAGAGCUCAACACAGGGUGGCAAAGUGGCCGUGGCUAGACUGCC, 0.04.
Regarding GGCAGAGCUCAACAUAGCGUGGCAAAGUGAUUGUGGCUAGACUGCC, the self-cleavage is 0.07.
For GGCAGAGCUCAACACAGCGUGGCAAAGUGGGUGUGGCGAGACUGAC the value was 0.02; for GGCAGAGGUCAACAAAGCGUGGCAAUCUGGCUGUGGCUAGACUGCC, 0.06.
For CGCAGAGCUCAACUCAGCGUGGCAAAGUGGCUGUGGCUAAACUGCG the value was 0.03.
For GGCAGAGCUCAACACAGCAUCGCAGAGUGGCUGUGACUAGACUGCC the value was 0.05.
Consider GGCAGAGCUCCACACAGCGUGGCAAAGUGGCUGCCGCUAGACUGCU, for which the self-cleavage came out at 0.
Under GGCAGAGCUCAACACAUAGUGACAAAGUGGCUGUGGCUAGACUACC stands 0.11.
